Experimental data published in PubChem BioAssay AID1963576 (National Center for Advancing Translational Sciences (NCATS), 2024).
Out of some 46,000 compounds screened, about 60 (0.1%) were called active. Roughly 3% stayed inconclusive and do not appear here. Calls come from the whole dose curve; as a rule, active = well fitted inhibition curve with a large enough effect; inconclusive = small, poorly fitted or top-dose-only effect; inactive = no such curve, though single readings can be large or run the other way. This is one part of the list.

Experiment: Primary qHTS assay for Inhibitors of ovarian cancer metastasis using an organotypic tumor microenvironment (TME) model.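 For activity change, negative = inhibition: plate controls were DMSO wells for no effect and tomatine positive control wells for full effect.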 Note: nearly all actives have a fitted effect of over 65% in size.
Settings: SKOV3ip1-GFP adhesion/invasion on 3D omental model, fluorescence; series mostly up to 45.8 µM; activity change, negative = inhibition: at the top concentration
How it was run: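 A 3D layer of primary human omental fibroblasts, mesothelial cells, fibronectin and collagen I, grown 48 hr, received SKOV3ip1-GFP cells in serum-free medium plus compounds at 0.36-46 umol/L. After 2 hr RT and 16 hr 37 C, fixed adherent GFP cells were counted; normalized to DMSO and tomatine.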

Activity change, negative = inhibition, inactive:
COc1ccc(-n2nc(C(=O)NCc3ccc(F)cc3Cl)c3c4ccccc4n(C)c3c2=O)cc1Cl -3.54%
COCC(C)Nc1ncnc2c1cnn2-c1ccc(C)c(C)c1 (stereo unspecified) 4.23%
Cc1ccc(C(=O)Nc2cccc(C(=O)OCc3cc(=O)n4nc(C5CC5)sc4n3)c2)cc1 0.935%
CCCn1c2ccc(F)cc2c2nnc(SCCN(CC)CC)nc21 -24.5%
Clc1ccc(Nc2c(-c3ccccc3Cl)nc3ccc(Cl)cn23)cc1 5.96%
CC(NC(=O)c1ccc2c(c1)sc1nc(-c3ccccc3)cn12)C12CC3CC(CC(C3)C1)C2 (stereo unspecified) -9.23%
Cn1c(=O)c(=O)n(C)c2cc(S(=O)(=O)N3CCN(c4ccccc4)CC3)ccc21 -2.53%
Cc1cccc(C(=O)Oc2c(Sc3ccccc3)c(C)nn2C(C)(C)C)c1 -6.06%
CCCCN(CC)CCCNC(=O)Cn1ncc2c3ccccc3n(Cc3ccc(F)cc3)c2c1=O 3.5%
COc1ccc(S(=O)(=O)NCc2nc3nc(C)cc(C)n3n2)cc1OC -26.4%
CCOC(=O)c1ccc(N2C(=O)c3n[nH]c(-c4ccco4)c3C2c2cccc(O)c2)cc1 (stereo unspecified) -15.8%
COCCNC(=O)CN1C(=O)c2cccnc2Oc2ccc(Cl)cc21 4.45%
Cc1ccc(S(=O)(=O)N(CCc2ccccc2)CC(=O)Nc2ccc(Br)cc2)cc1 -10.1%
O=C(Cn1cnc2onc(-c3ccc(Cl)cc3)c2c1=O)Nc1ccc(F)cc1 -12.5%
COc1ccc(-c2nc(CNS(=O)(=O)c3cccc(F)c3)cs2)cc1 -20.5%
CCc1ccccc1NC(=O)Cn1c(SCc2ccc(F)cc2)nc2ccncc21 7.38%
CCOc1ccccc1NC(=O)C1=C(C)Nc2ncnn2C1c1ccc(C)o1 (stereo unspecified) -27.1%
COc1ccc(-c2nc(CCNC(=O)c3ccc(Br)o3)cs2)cc1 -25%
O=[N+]([O-])c1cc(-c2nc(-c3ccccc3)no2)ccc1N1CCOCC1 -3.25%
Cc1cccc(NC(=O)c2oc3ccccc3c2NC(=O)Cc2coc3ccc(C(C)C)cc23)c1 1.35%
CC1CCN(C(=O)C2COc3ccccc3C2)CC1 (stereo unspecified) 1.82%
Cc1ccc(Nc2sc(C(=O)c3ccccc3)c(N)c2C(N)=O)cc1 -12.1%
O=C(CCCn1c(=O)c2cccn2c2ccccc21)NCc1ccccc1Br -5.97%
COc1cc(C(C)C)c2c(c1)S(=O)(=O)N(COc1cc(=O)n3cccc(OCCN4CCCCC4)c3n1)C2=O 16.1%
CCOc1ccc(NC(=O)N(C)CCc2c(C)nn(C)c2C)cc1 -0.988%
O=C(NCC(c1cccnc1)N1CCc2ccccc21)c1ccc(F)cc1 (stereo unspecified) -8.79%
Cc1ccc(NC(=O)c2ccc(CNS(=O)(=O)c3ccc4c(c3)C(C)(C)C(=O)N4C)cc2)cc1F -1.43%
CCCCOc1ccccc1C(=O)N(Cc1cccc(F)c1)C1CCS(=O)(=O)C1 (stereo unspecified) 7.09%
O=C(Nc1ccc2nc(SCCOc3ccccc3Cl)sc2c1)c1ccc2c(c1)OCO2 -13.5%
CC(=O)c1cccc(NC(=O)Cc2noc3ccccc23)c1 2.82%
CC(C)CCNC(=O)CN1C(=O)c2cccnc2Sc2ccccc21 6.74%
COc1ccc(OC(C)C(=O)NCc2nc(-c3cccc(C)c3)no2)cc1 (stereo unspecified) -3.12%
CN(C)c1ccc(NC(=O)CSc2nc3ccsc3c(=O)n2CCCCCC(=O)O)cc1 0.686%
COc1cc(OC)c(NC(=O)C(Cc2ccccc2)NS(=O)(=O)c2cccc3nsnc23)cc1Cl (stereo unspecified) 1.64%
Cc1ccccc1-c1noc(-c2ccc(N3CCN(C)CC3)c([N+](=O)[O-])c2)n1 4.78%
Cc1cc(C)c(NC(=O)C(=O)NCC(c2cccnc2)N2CCN(Cc3ccccc3)CC2)c(C)c1 (stereo unspecified) -4.39%
COc1ccc(C)cc1NC(=O)Nc1ccccc1OCc1cc(=O)n2ccccc2n1 -24.2%
CCCCNC(=O)c1cnc2sc(N3CCCCCC3)nn2c1=O -5.06%
COc1cccc(NC(=O)CSC2=Nc3ccccc3C3=NC(CC(=O)NCc4ccc5c(c4)OCO5)C(=O)N23)c1 (stereo unspecified) -6.41%
O=C(CSc1nc2nccnc2c(=O)n1CCc1c[nH]c2ccccc12)Nc1ccc(F)cc1 21.4%
CSc1nn(Cc2cccc(Cl)c2)c(N(C(C)=O)C(C)=O)c1S(=O)(=O)c1ccccc1 9.85%
COc1ccc2c(c1)c1c(c(=O)n(-c3ccccc3)c(=O)n1CC(=O)NCc1ccc(C)cc1)n2C 11.6%
CN(C)c1ccc(C(CNS(=O)(=O)c2ccc(F)cc2)N2CCOCC2)cc1 (stereo unspecified) -8.94%
COc1ccc(-n2cc(C(=O)OCc3ccc(Cl)cc3)c3ccccc3c2=O)cc1 -2.85%
CCOc1ccc(CNC(=O)Cn2ccc3cc(S(=O)(=O)N4CCCCC4)ccc32)cc1 11.6%
Cc1ccc(NC(=O)CSc2ccc(-c3ccccn3)nn2)cc1F -17.9%
Cn1c(=O)c(=O)n(C)c2cc(S(=O)(=O)N3CCCC3C(=O)Nc3ccc(F)cc3)ccc21 (stereo unspecified) 1.96%
COc1cc(C)c(C=CC(C)=CC=CC(C)=CC(=O)O)c(C)c1C -21.8%
CCOc1ccc(Nc2sc(C(=O)c3cccc(OC)c3)c(N)c2S(=O)(=O)c2ccccc2)cc1 8.01%
COc1ccc(NC(=O)C2CCN(S(=O)(=O)c3ccc4c(c3)CCCC(=O)N4)CC2)c(OC)c1 8.3%
CCC(C(=O)Nc1ccc(C(=O)OC)cc1)n1nc(-c2ccc(C)c(C)c2)ccc1=O (stereo unspecified) 2.75%
COc1cc(OC)cc(C(=O)Nc2cc(-c3nc4cccnc4s3)ccc2C)c1 -17.4%
Cc1c(C(=O)OC2CCCCCC2)[nH]c2c1C(=O)CC(c1ccc(N(C)C)cc1)C2 (stereo unspecified) -12.7%
Cc1oc(C)c2c(=O)cc(-c3ccc4c(c3)OCO4)cc(OC(=O)c3cccc(Cl)c3)c12 0.44%
Cc1ccc(Cn2c(=O)n(-c3cc(C)cc(C)c3)c(=O)c3oc4ccccc4c32)cc1 -4.5%
N#Cc1c(C(F)(F)F)cc(-c2cccs2)nc1SCC(=O)Nc1cccc(C(F)(F)F)c1 -25.4%
O=C(Cn1c(SCC(=O)Nc2ccc(F)cc2)nc2ccccc21)NCc1ccccc1Cl -11.7%
CCCCOC(=O)c1cccc(NC(=O)/C=C/c2ccccc2Cl)c1 -23.9%
Nc1ccccc1NC(=O)c1ccc(CNc2nccc(-c3cccnc3)n2)cc1 30.1%
CN1C(=O)C(C)(C)c2cc(S(=O)(=O)N3CCCC3C(=O)Nc3ccc(F)cc3)ccc21 (stereo unspecified) 3.1%
Cc1ccsc1CN(C(=O)COc1cccc(C)c1C)C1CCS(=O)(=O)C1 (stereo unspecified) -4.25%
COc1cc(Cl)c(C)cc1NC(=O)c1sc2nc(C)cc(C)c2c1N 2.85%
COc1ccccc1NC(=O)C(Cc1ccccc1)NS(=O)(=O)c1cccc2nsnc12 (stereo unspecified) -3.33%
CC(C)(C)OC(=O)Nc1ccc(-c2cc(C(=O)NCCCCCCC(=O)NO)no2)cc1 1.56%
Cc1ccc(N2CCN(C(=O)NCc3noc4ccc(C)cc34)CC2)c(C)c1 14.7%
Cc1cccc(NC(=O)c2ccc(CNS(=O)(=O)c3ccc4c(c3)C(C)(C)C(=O)N4C)cc2)c1 -22.9%
O=C(CCC1N=C2c3ccccc3N=C(SCC(=O)Nc3ccc(F)cc3)N2C1=O)NCc1cccs1 (stereo unspecified) -6.72%
Cc1ccc(CNC(=O)c2sc3nc4n(c(=O)c3c2C)CCCCC4)cc1 41.1%
COC(=O)c1ccccc1NC(=O)C1CCCN(c2ncnc3onc(C)c23)C1 (stereo unspecified) 5.44%
COc1ccccc1N=C1SC(C(=O)Nc2ccccc2OC)CC(=O)N1C (stereo unspecified) 3.27%
COc1ccccc1NC(=O)CSC1=Nc2ccccc2C2=NC(CC(=O)NCc3ccc4c(c3)OCO4)C(=O)N12 (stereo unspecified) -2.63%

outcome, inactive:
CCCOc1ccc(C2CC(=O)Nc3c2c(=O)n(C)c(=O)n3C)cc1OC (stereo unspecified)
Cc1c(C(=O)Nc2ccccc2Cl)oc2ccc(S(=O)(=O)N3CCCCC3)cc12
COc1ccc(CNC(=O)CSc2c3c(nc4ccc(Cl)cc24)CCCC3)cc1
CCc1nn(CC(=O)Nc2ccc(NC(C)=O)cc2)c(=O)c2cc3sccc3n12
COc1ccc(Nc2c3c(nc4nncn24)CCC3)cc1OC
CCOc1ccc(NC(=O)N2CCN3CCCCC3C2)cc1 (stereo unspecified)
CCc1cccc(CC)c1NC(=O)CCS(=O)(=O)c1ccc2c(c1)CCN2C(C)=O
CCOC(=O)C1=C(CN(C)Cc2ccccc2)NC(=O)NC1c1ccc(OC)cc1 (stereo unspecified)
CCOc1ccc(CCNC(=O)CSc2nnnn2-c2ccc(C)cc2C)cc1OCC
CCCCC(=O)NC1(C(F)(F)F)C(=O)Nc2c1c(=O)[nH]c(=O)n2-c1ccc(C)c(C)c1 (stereo unspecified)
COc1ccc(CC(=O)Nc2cc(-c3cn4cccnc4n3)ccc2OC)cc1
CCS(=O)(=O)c1ccccc1C(=O)Nc1ccc(-c2nc3ccccc3s2)cc1
Cc1c(C(=O)N(Cc2ccco2)Cc2ccccc2Cl)oc2ccc(F)cc12
COc1ccc(C2C(=O)N(C3CCC(C)CC3)CC(=O)N2C2CCCC2)cc1OC (stereo unspecified)
COc1ccc(CC(=O)N(Cc2nc(-c3ccc(C)cc3)no2)C(C)C)cc1
COc1ccc(S(=O)(=O)N(CC(=O)NCCSCc2ccccc2)c2ccc(C)cc2)cc1
O=C(c1ccccc1Br)N1CCC(c2nc3ccccc3o2)CC1
Cc1ccc(S(=O)(=O)NCc2ccc(C(=O)NCCc3cccc(C)c3)cc2)cc1
COc1ccc(S(=O)(=O)N(Cc2nc(-c3ccc(Cl)cc3)no2)C2CCCCC2)cc1
COc1ccc(OC)c(NC(=O)CSc2nc3ccccc3c(=O)n2CCC(=O)NC2CCCCC2)c1
CCOC(=O)COc1ccc(F)cc1C(=O)c1ccn2nc(-c3ccc(C)cc3)cc2n1
COc1cc(C(=O)N(Cc2cccnc2)c2nc3cc(C)c(C)cc3s2)cc(OC)c1OC
Cc1ccccc1C(=O)N(Cc1ccc(N(C)C)cc1)CC1CCCO1 (stereo unspecified)
O=C(NCCOCCn1c(=O)oc2ccccc21)Nc1cccc(Cl)c1
CCOC(=O)c1noc2ncnc(NCc3ccccc3OC)c12
